Measurements taken from the supplement of paper PMC3334620.
In all, about 33,000 sequences were measured (“E-score (-0.5 to 0.5)”: median about -0.04, highest 2% from about 0.36 on). The list shows a part of the results.

Molecular target: T1, Hmlalpha2 (UniProt P0CY09)
T1 sequence: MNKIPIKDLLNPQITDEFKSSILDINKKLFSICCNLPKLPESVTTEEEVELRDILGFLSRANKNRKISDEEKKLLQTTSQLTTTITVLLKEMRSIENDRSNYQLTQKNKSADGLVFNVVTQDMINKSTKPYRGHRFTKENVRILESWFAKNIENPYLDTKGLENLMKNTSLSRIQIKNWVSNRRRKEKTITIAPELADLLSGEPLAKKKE
Assay: PBM E-score (8-mer binding enrichment) (E-score (-0.5 to 0.5)); higher = stronger / more preferred TF binding; most listed sequences are background and not binding sites
Conditions: protein concentration: 200 nM; construct: GST-full length
Method in brief: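 E-scores (a modified Wilcoxon-Mann-Whitney statistic) were assigned by the Universal PBM Analysis Suite to every ungapped eight-base word pooled with its reverse complement. The input came from universal all-10-mer Agilent arrays made double-stranded by primer extension and probed with GST-tagged yeast transcription factors at about 100-200 nM. Fluorescent anti-GST detected bound protein, and masliner normalised the scans.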

Sequence | PBM E-score
CTGTAAGC | -0.0257
CTGTGGAA | -0.114
CAAGATCG | 0.063
GCGGACCA | -0.0719
TTGAGAAA | 0.125
ATGTAATA | 0.48
CTTTCACC | -0.118
TAATGCGA | 0.232
AGTACACC | 0.115
CGCAGCTA | -0.0436
ATATACCG | 0.107
CTGCCAGA | -0.232
ACTCCACT | -0.192
ACAGCTTG | 0.192
ACCGTCCG | -0.401
GACACTCA | -0.059
AATTTTCA | 0.0373
CCACTCTA | -0.0812
AAATATTT | 0.0866
CTGCTGGC | -0.294
CACACGCA | 0.19
CACACCGG | -0.0415
GGTCCTGA | -0.315
CAGTGGTC | -0.216
CCGGTGCG | -0.115

Sequence | PBM E-score
GGTAACAC | 0.273
CCTGGTAG | -0.298
CAGTCACG | -0.0541
CCTTATAC | 0.0447
CCCGAACC | -0.267
CAAACCAG | -0.0168
CCTAAGCC | -0.252
CGTGTATA | 0.452
ATAGCGCA | -0.0333
AGTGAATG | 0.143
AAGCGAAG | -0.0904
ATGTCTTG | 0.0125
ACAATCAT | 0.195
GCGCAAGA | -0.0432
TACGATCA | -0.0609
CCCTGAAC | 0.159
GACTCTTA | -0.158
CTCTGAGA | -0.188
GGCGGAAC | -0.173
AGGCGTCC | -0.171
CCATGGCC | -0.358
CATCCAGC | 0.00515
AACAAAAG | 0.193
GAGCTAGA | -0.134
CCTATTGA | -0.0297

Sequence | PBM E-score
AGACCTAT | 0.00931
AAGGCCAA | -0.243
AACATCAT | 0.202
AAGCCCAT | -0.143
GCTCACCC | -0.233
CTGCCTTC | -0.295
CGCGAAAG | -0.0485
CGGGTCAG | -0.118
GATGAGAC | -0.181
CTTACTAA | 0.149
GACGGAGA | -0.157
ACTAACCC | 0.0236
AGTCATCG | -0.0877
ATTGCCCA | -0.0733
CTGAGAAG | -0.316
TGACGCCA | -0.118
CGCCTATA | -0.138
GAGCCGAC | -0.24
CATATGGA | -0.0107
GCCTTAGA | -0.211
CCTACACC | -0.00672
AAATTAAT | 0.26
TGTACAAA | 0.422
AGCTCTGC | -0.239
AATGTAGA | 0.301

Sequence | PBM E-score
AGCTTGCG | -0.0242
CTGTATAA | 0.209
AGAGTTAG | -0.0912
ATTCATAG | 0.132
GCTTGTAC | 0.243
ACCGAACA | 0.117
CCGGAGCA | -0.239
CAATTGGC | -0.0418
TCCATTAA | 0.148
GCGCCAGA | -0.138
AAAGTGCG | -0.05
TTAGCAAA | 0.135
GTATCCAC | -0.117
GACATAGA | 0.145
CGTATGCC | -0.209
CTCAAAAG | -0.0353
TACCGCCA | 0.0215
AACCTGTC | -0.0259
CTGATGAA | -0.0425
TGTAATAA | 0.45
CGCGTTCC | 0.061
ATTCGACC | -0.291
GAGTGAGA | -0.0922
AGTTGGGA | -0.0684
ATAGCCAT | 0.0224

Sequence | PBM E-score
ACGACACA | 0.248
CTACCAGA | -0.187
ATAGCTCG | 0.0298
CGCAGCCA | -0.223
TCACAAGA | -0.0359
ATGCGTAC | 0.273
GTTTGCGA | 0.191
CGCCGAAC | -0.196
ATAACCGA | -0.105
CAAGGTGA | -0.0711
ATATGTCA | 0.153
GCAGTGCC | -0.137
GGTCACGA | -0.0522
CGGCAGAA | -0.197
TGGAACCA | -0.0352
CAAGTAAG | 0.0378
GCATCTGA | -0.251
CAGCGAGG | -0.256
AAACGATT | -0.0352
CCATTTGC | -0.125
ACGAACCA | 0.219
AGATTCCT | -0.188
GCCTATAC | -0.198
GAGTAGAC | -0.0398
CCAAACAG | -0.0514

Sequence | PBM E-score
CAAAGCTC | -0.162
AGTGACAT | 0.243
GCCAGGAA | -0.0164
GAGCGCTA | -0.0987
AACACGTA | 0.41
GACCGTCC | -0.302
AACGTAGG | -0.0759
GTTATCCA | 0.0731
CCATAGAC | -0.203
AATTCATA | 0.0101
CCAGTTAA | 0.229
ACTCTGCC | -0.095
CTGTTTAC | 0.371
CTCCTAAC | 0.0477
ACCGAGAA | -0.178
ACGCACTG | 0.0609
AAAAGACA | 0.118
CCACGCGG | -0.203
CCCATTAA | 0.207
GAGTGGGA | -0.189
ACAGCAGG | 0.0218
CATGGAAA | 0.229
AATCATCA | -0.0656
ATGACGGA | 0.00302
GCTATTTA | 0.146

Sequence | PBM E-score
GAAGCATA | -0.0521
CTCGCAGC | -0.237
CGACATAA | 0.273
AGCTATAC | 0.104
ACCGATGG | -0.143
GAAGTTGC | -0.116
ACGTGTTG | 0.415
CGTCCCAG | -0.228
GTAGGCCA | -0.034
AGATGCTC | -0.0672
CAGTGGCG | -0.21
AATGTCCT | 0.00569
ATGGCTCA | -0.19
CACGATCA | 0.252
CGCATGCC | -0.0671
ACCTGCGG | -0.228
AGGTACTC | 0.0834
AGCTGAAA | 0.0678
AACCTGAC | -0.00028
AGGACTCA | -0.0708
AGACCTCA | -0.0103
ACCTTAGT | 0.00079
CCCAACGA | -0.0584
GACGACTC | -0.279
TAAGCAGA | 0.00375

Sequence | PBM E-score
CCAACGCA | 0.149
ACTCGTGC | -0.202
GAAGTTTA | 0.137
AGTCGGCG | -0.0609
GAGGGATC | -0.209
CCCAGGGC | -0.289
GGTCAAAA | 0.055
CATGGCTC | 0.115
CATGTGAA | 0.318
CCAATGTC | -0.0124
ACCGGACC | -0.169
AACAGGAT | -0.00697
AAAAGGAA | -0.011
CTTTGGCA | -0.283
GGGCCAAC | -0.0699
GGAATGTA | 0.18
GACTCTGC | -0.314
CTACCTAA | 0.0141
AGCTGGAC | -0.0393
AAAACTAC | 0.202
ACCGACCT | -0.141
CCCTAGTA | 0.0374
CTCCACGC | -0.249
GCGTCCCC | -0.358
CATGGTGA | 0.0496

Sequence | PBM E-score
CGCTCGAG | -0.123
AGGGTGGC | -0.316
ACTCGCCT | -0.121
CTACTCCA | -0.142
GACTGAGA | -0.102
GCTACTTA | 0.0271
ACTAACGG | -0.168
ATGGCGTA | 0.0186
GATAACAA | 0.324
GAAGACTA | -0.048
GATGGCCC | -0.256
AAGCCAGA | -0.0598
AACCTAAT | -0.0243
ATTCCGCG | -0.0728
ACTACCGA | -0.12
CTGCCTGA | 0.0519
AATATGAA | -0.00341
CAGCTCGG | -0.148
GTATCGGA | -0.075
ACACGAAT | 0.356
GGACGCAC | -0.22
GTAGAATA | 0.308
TCCACGCA | -0.0321
CTAGCAAC | 0.107
ACGTGACG | 0.0289

Sequence | PBM E-score
CACGGAAA | 0.146
ATCACAAT | -0.00916
GAGTCCGC | -0.243
TAGATGGA | 0.0236
CCCAGTCC | -0.121
CCACAGCC | -0.131
CCCACTGA | -0.133
AGCAGACA | -0.0775
CACAAAGG | -0.0549
ACGGACAT | -0.0204
ACCAAGGG | -0.184
AATTCAAA | 0.148
GGGTGTAA | 0.342
ATAGTCAA | -0.0286
GGTCGCGA | -0.177
AGGGTGCC | -0.313
GTGACATA | 0.246
CTCCAGAG | -0.337
CCTCCTAG | -0.298
AGGACTGG | -0.0983
ACCTAATA | 0.0446
ATCCTAAA | -0.188
GGACATGA | -0.0328
ACAACTAA | 0.258
ACTGACAA | 0.218

Sequence | PBM E-score
GCAAGTCA | -0.0183
GTGCTTAA | 0.0902
CCAGAAGG | -0.0879
GACCTCCC | -0.345
ACATTTTC | 0.106
ATCGTCAC | 0.123
CGCTAACC | -0.0928
TAGGATAA | -0.0114
TCGGGGCA | -0.223
TCATCGGA | -0.0992
AGGAAGAC | -0.0908
ACACGATG | 0.388
GGTATAAC | 0.0399
GCATTAAC | 0.249
ATCGGCGC | 0.133
ACGCCTCA | 0.0996
AAATAAGG | -0.0558
AGCTCCAC | -0.194
CACCAGAG | -0.0421
TAGCGACA | 0.124
GTTACTTA | 0.141
AGTTTTAG | -0.017
GCGCCCGA | -0.126
AAGACGCA | 0.00981
CGTCTTGA | -0.0718

Sequence | PBM E-score
AACAGAAA | 0.169
ACGATGGC | -0.0988
GTACAACA | 0.395
GTACACAA | 0.373
GCAGGAAC | -0.205
CTATGACA | 0.0374
CATGCCGG | 0.156
CGCGTTCA | 0.302
ATACATGC | 0.427
CCATTATA | -0.101
ATGGTTTA | 0.122
CTCGTTGC | 0.227
TACTGGGA | -0.0503
TGTGTTAA | 0.471
ACCCGAGG | -0.126
CGAAAGAA | -0.0556
AGTGCGAC | -0.234
AGCGAGGG | -0.264
AGATTTAG | -0.00902
TACATTAA | 0.336
CTCTTGTC | -0.0028
ATGGCCAA | -0.0102
GTGTAATA | 0.456
GCGGGCCA | -0.246
ATCAAAGG | -0.197

Sequence | PBM E-score
ACGCCATC | -0.107
CAAGGGCA | -0.179
ATGAGACC | -0.0323
ATTCATGA | 0.11
CCACCGAA | -0.0581
ACATGGTA | 0.397
AATTATCC | 0.12
CTAAGAAG | 0.056
CAAACCCA | 0.0867
GAGCGACC | -0.227
CACTCCCG | -0.195
CGGACAAG | -0.065
AGTAAATC | 0.0526
AACACGCC | 0.359
GGATAAGA | -0.195
AAGATTGA | 0.0865
GAAATGTC | -0.0503
GAATAGTA | 0.0834
CGTATCCA | -0.0445
ACGGACTC | -0.148
ACTGAGAA | -0.145
GCAACCCC | -0.297
ATGACGAG | -0.00166
CGGGATTA | 0.113
ATAAATGG | -0.0033

Sequence | PBM E-score
ACATTTAT | 0.172
GCTCTTTA | -0.116
CTCTCTGC | -0.211
ACCCACGT | 0.14
AAACGGTA | 0.0331
ATCGTTGA | 0.0647
AGCATTAG | -0.0284
CACCTTAG | -0.0391
ATCGTCAA | 0.0582
ACTCTACA | 0.33
AGCACGCT | 0.00597
CACTCCGA | -0.161
TCCATGCA | -0.00149
AAAGGTCG | -0.202
CTTACGTC | -0.0765
TCATTAAA | 0.263
GTTATGGA | 0.143
CTTAGTAA | 0.257
TCTTAAAA | -0.0174
